Measured values reported in publication PMC4336329 (PLoS ONE, 2015).
About 14,000 (4.5%) of roughly 310,000 compounds showed an effect of 50% or more. The effect is printed as a negative number. The list shows a part of the results.

Target: human ether-à-go-go-related gene (hERG) potassium channel (human, UniProt Q12809)
Assay: primary screen, population patch clamp on CHO cells stably expressing hERG
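Also: peak tail current of the secondary pulse compared with the same well before compound.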

human ether-à-go-go-related gene (hERG) potassium channel, sequence (Q12809 whole entry, looked up): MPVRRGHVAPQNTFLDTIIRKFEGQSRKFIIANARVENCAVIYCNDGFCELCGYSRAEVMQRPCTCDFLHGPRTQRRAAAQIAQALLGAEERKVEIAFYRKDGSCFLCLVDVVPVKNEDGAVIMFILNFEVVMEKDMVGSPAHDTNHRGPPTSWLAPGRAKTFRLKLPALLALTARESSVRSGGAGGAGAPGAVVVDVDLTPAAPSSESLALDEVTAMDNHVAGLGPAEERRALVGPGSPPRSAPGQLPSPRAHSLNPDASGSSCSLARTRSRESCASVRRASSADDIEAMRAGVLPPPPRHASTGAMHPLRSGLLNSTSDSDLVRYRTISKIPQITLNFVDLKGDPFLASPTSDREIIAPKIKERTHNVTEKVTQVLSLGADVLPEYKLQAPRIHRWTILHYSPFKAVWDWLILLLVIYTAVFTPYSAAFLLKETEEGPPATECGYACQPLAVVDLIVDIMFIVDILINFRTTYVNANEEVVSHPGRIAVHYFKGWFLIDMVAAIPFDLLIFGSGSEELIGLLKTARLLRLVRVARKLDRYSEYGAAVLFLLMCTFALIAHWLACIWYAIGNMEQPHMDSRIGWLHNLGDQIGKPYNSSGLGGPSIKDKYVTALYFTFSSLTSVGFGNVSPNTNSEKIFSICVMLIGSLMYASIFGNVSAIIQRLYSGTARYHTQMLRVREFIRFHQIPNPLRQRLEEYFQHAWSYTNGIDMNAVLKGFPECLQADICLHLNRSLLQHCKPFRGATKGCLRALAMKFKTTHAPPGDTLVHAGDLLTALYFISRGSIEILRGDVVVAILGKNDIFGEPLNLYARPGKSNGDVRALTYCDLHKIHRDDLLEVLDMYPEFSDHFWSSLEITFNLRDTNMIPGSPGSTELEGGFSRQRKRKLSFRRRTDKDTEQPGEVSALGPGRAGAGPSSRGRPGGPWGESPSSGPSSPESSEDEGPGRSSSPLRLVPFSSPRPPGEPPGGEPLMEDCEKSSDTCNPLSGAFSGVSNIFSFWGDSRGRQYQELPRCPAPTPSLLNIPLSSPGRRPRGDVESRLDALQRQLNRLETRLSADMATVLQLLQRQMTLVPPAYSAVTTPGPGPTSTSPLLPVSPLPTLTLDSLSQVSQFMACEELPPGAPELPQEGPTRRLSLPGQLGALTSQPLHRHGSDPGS

| Structure (SMILES) | hERG current change (%, negative = inhibition) at 10uM |
| --- | --- |
| CC1CCCCC1NC(=O)Cn1c(=O)oc2cc(S(=O)(=O)N3CCCC3)ccc21 (stereo not drawn) | 18.8% |
| O=C(CN1C(=O)COc2ccccc21)NCc1ccc(C(=O)O)cc1 | 7.27% |
| Cn1cnnc1SCC(=O)Nc1ncc(C(F)(F)F)cc1Cl | 21.3% |
| O=C(Nc1nncs1)c1ccccc1NS(=O)(=O)c1cccs1 | 12.9% |
| O=C(COC(=O)/C=C/c1ccc(C(F)(F)F)cc1)NC1CCS(=O)(=O)C1 (stereo not drawn) | 19.5% |
| O=[N+]([O-])c1ccccc1/C=N/Nc1nnc(-c2ccccc2)c(-c2ccccc2)n1 | 10.8% |
| Oc1ccc(C23CCCC2C2(CCCC2)c2ccc(O)cc2O3)c(O)c1 (stereo not drawn) | -8.11% |
| COc1ccc(N(CC(=O)N2CCC(C)CC2)S(=O)(=O)c2c(C)nn(C)c2C)cc1 | -15.9% |
| Cc1nc(SCC(=O)Nc2cc(Cl)ccc2[N+](=O)[O-])nc(C)c1C | 13.1% |
| Cc1cc(C)c(C)c(S(=O)(=O)NCCCN2CCCC2=O)c1C | -9.79% |
| CC(=O)O[C@@H]1[C@@]2(C)O[C@H]2CC[C@]23O[C@H]2[C@H](OC3=O)C2=C(C)C(=O)O[C@@]21O | 10.1% |
| Cc1cc(C)n(CCN(C)C(=O)CCc2nnc(-c3ccc4c(c3)OCO4)o2)n1 | -51.7% |
| CCOc1cc(-c2nc(-c3ccccc3OC)no2)cc(OCC)c1OCC | 4.01% |
| O=C(O)Cn1cc(C(=O)c2ccccc2)c2ccccc21 | -0.546% |
| COc1ccc(Cc2noc(CN3CCN(Cc4cccc(Cl)c4)CC3)n2)cc1OC | -11.5% |
| NC(=O)c1nsc(C(=O)N(CC(=O)NC2CCCC2)c2cccc(C(F)(F)F)c2)c1N | -14.3% |
| COc1cc(NC2c3ccccc3C(=O)N2Cc2ccc3c(c2)OCO3)cc(OC)c1OC (stereo not drawn) | 6.14% |
| O=c1oc(CCO)cc2ccc(-c3ccc4[nH]ccc4c3)cc12 | 14.5% |
| Cc1cc(C)c(C#N)c(SCC(O)CS(=O)(=O)Cc2ccccc2)n1 (stereo not drawn) | 1.14% |

| Structure (SMILES) | hERG current change (%, negative = inhibition) at 10uM |
| --- | --- |
| C=CCNC(=O)COC(=O)c1oc2ccccc2c1CSC1CCCCC1 | -8.69% |
| COCCOC(=O)c1c(C)n(C)c2ccc(OC(=O)c3ccccc3OC)cc12 | -16.6% |
| O=C(NCCCn1ccnc1)c1ccc(Cl)s1 | 5.72% |
| O=C(CN(C(=O)CNC(=O)c1cccs1)c1ccc(F)cc1)NC1CCCCC1 | -4% |
| N/C(=N\S(=O)(=O)c1cc(C(F)(F)F)cc(C(F)(F)F)c1)c1ccc(Cl)cc1 | -8.21% |
| CC(=O)Nc1ccc(S(=O)(=O)NCCC(=O)OCC(=O)c2ccccc2)cc1 | 1.66% |
| O/N=C/C1=C(Cl)c2ccccc2CC1 | -4.9% |
| O=C(CSc1ccc2nnc(-c3cccnc3)n2n1)N1CCOCC1 | -25% |
| COc1ccc(S(=O)(=O)Nc2noc3ccccc23)cc1 | 22.6% |
| NNC(=O)c1csc(Cc2c(Cl)sc3ccc(Cl)cc23)n1 | 9.6% |
| COc1cccc(/C=N/Nc2ncnc3c2[nH]c2ccc(C)cc23)c1OC | 17.8% |
| Cc1ccc2[nH]cc(C(=O)CN3CCN(c4ccccc4F)CC3)c2c1 | -2.17% |
| Cc1nn(Cc2ccccc2)c(C)c1CNC(=O)c1ccc(F)c(S(=O)(=O)N2CCOCC2)c1 | -28.8% |
| CCN(CC)CCNc1ncnc2c1sc1nc(N3CCCC3)c3c(c12)CC(C)(C)OC3 | -65.5% |
| CCOCCCNC(=O)N[C@@H](C)C(=O)OC | -5.77% |
| CC(=O)c1cnc(SCc2ccc(Cl)cc2)nc1C | -0.123% |
| COc1cccc(/C=N/NC(=O)Cn2cnc3c2c(=O)n(C)c(=O)n3C)c1 | 6.77% |
| CC(C)Nc1nc2nonc2nc1Nc1ccccc1 | 6.84% |
| Cc1ccc(S(=O)(=O)/N=C(/Nc2c(C)n(C)n(-c3ccccc3)c2=O)c2ccccc2)cc1 | -13% |

| Structure (SMILES) | hERG current change (%, negative = inhibition) at 10uM |
| --- | --- |
| CC(C)OCCCNC(=O)C(C)Oc1ccccc1 (stereo not drawn) | -0.266% |
| Cc1ccn2cc(CNC(=O)c3ccc(Br)o3)nc2c1 | -38.6% |
| COc1cc(-c2[nH]ncc2CN2CCc3sccc3C2)cc(OC)c1OC | -6.38% |
| O=C(CN1CCN(c2ccc(F)cc2)CC1)c1ccc2c(c1)OCO2 | -27.1% |
| CSc1c(-c2ccccc2)nc2ccc(Cl)cc2c1C(=O)O | -0.26% |
| CCN(Cc1ccncc1)C(=O)Cc1cccs1 | -4.02% |
| Cc1cc(C)cc(NC(=O)C(c2ccccc2)N2CCCC2)c1 (stereo not drawn) | 12.5% |
| CC(=O)c1ccc(NC(=O)CSc2nnc(-c3ccco3)o2)cc1 | -73.9% |
| COc1ccc(/C(C)=N/NC(=O)CNC(=O)c2cccs2)cc1OC | 4.52% |
| Cc1c(Cl)cccc1NC(=S)N(CCCN1CCOCC1)Cc1ccco1 | -43.9% |
| O=C(CNC(=O)c1ccccc1F)NC1=NCCS1 | 35.9% |
| CCS(=O)(=O)c1ccc2c(c1)NC(=O)C(CCO)O2 (stereo not drawn) | 3.3% |
| CCCCNC(=O)C1CCCN1S(=O)(=O)c1cccc2nsnc12 (stereo not drawn) | -2.84% |
| CCNC(=O)CCSc1nnc(-c2ccco2)o1 | 5.62% |
| COc1ccc(CO[C@@H]2O[C@H](CO)[C@@H](O)[C@H](O)[C@H]2NC(C)=O)cc1OC | 20.3% |
| CCCCCCSc1nc2c(c(=O)[nH]c(=O)n2C)n1C | 11.8% |
| CC(C)N(C(=S)Nc1cccnc1)c1ccccc1 | 3.64% |
| C=CCn1c(SCC(=O)Nc2ccc(O)cc2)nc2sc(CC)cc2c1=O | -62.5% |
| COc1cc2ccccc2cc1C(=O)Nc1ccc2oc(=O)ccc2c1 | 9.1% |
